# In PubChem BioAssay AID1347120 (National Center for Advancing Translational Sciences (NCATS), 2019):
# Values joined by “and” are separate entries in the source; they are usually repeats but may differ in a detail not shown here. Equal values may be shown once. In all, about 390,000 compounds went through this assay and about 930 (0.24%) were called active. The shares of active, inactive and inconclusive entries below differ from those in the screen. Calls come from the whole dose curve; as a rule, active = well fitted activation curve with a large enough effect; inconclusive = small, poorly fitted or top-dose-only effect; inactive = no such curve, though single readings can be large or run the other way. Potencies beside an inconclusive call are fits to weak or partial responses and may not hold up.
# Experiment: qHTS for Suppressors of FUS Proteinopathy: Primary screen using FUS-linked yeast assay; note: nearly all actives have a fitted effect of over 55% in size;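 for growth rescue (activation): plate controls were DMSO vehicle for no effect and reference control for full effect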
# Details: S. cerevisiae FUS-expressing, OD600, 24 h; Potency: growth rescue; growth rescue (activation): at 76.6 µM (top of the series)
# Text: Several widespread neurodegenerative diseases, including Alzheimer disease, Huntington disease, Frontotemporal Lobar Degeneration (FTLD) and Amyotrophic Lateral Sclerosis (ALS), share a common pathological feature, namely accumulation of specific protein aggregates in diseased tissue. These diseases which is associated with protein misfolding (proteinopathies) have become increasingly problematic as the population ages and life expectancies are extended. Most proteinopathies are currently incurable, a situation confounded by the fact that the basis of neurodegeneration is generally poorly understood. There exists urgent and significant need to find therapeutics that can inhibit the toxicity associated with protein aggregation. A novel approach to understand the underlying mechanisms of neurodegenerative diseases has recently emerged in which the disease conditions are modeled in the yeast (Saccharomyces cerevisiae), a tractable eukaryotic organism with conserved protein quality control mechanisms. Yeast offers quick and reliable genetic manipulations and can be easily tailored to high-throughput screening (HTS).
# For this project, a yeast model of the FUS proteinopathies (a spectrum of neurodegenerative diseases that include ALS and a subtype of FTLD) was generated and employed. The cytoplasmic accumulation of the DNA/RNA-binding protein FUS (also known as TLS) is causative to both familial and sporadic forms of ALS and FTLD. This yeast model recapitulates neuronal pathology by showing severe cytotoxicity associated with cytoplasmic accumulation of FUS aggregates and a specific interaction between FUS and TDP-43, another ALS-associated protein. […] Specifically, the cellular accumulation of misfolded FUS that disrupts RNA homeostasis in both yeast and higher eukaryotes. This model was validated to be suitable for quantitative HTS (qHTS) use for finding genetic or chemical factors that restore growth. […] Identified compounds that inhibits FUS-yeast toxicity is flagged, re-acquired, and validated for further investigation and optimization.
# NIH Chemical Genomics Center [NCGC]
# NIH Molecular Libraries Probe Production Centers Network [MLPCN]
# Assay Submitter (PI): Frank Shewmaker PhD, Uniformed Services University of the Health Sciences
# Compound CP55940 was used as the positive control. Column 1 was treated with CP55940 titration from 92uM (final concentration, 1:2 dilution), while Column 2 was treated with top dose 92uM. Columns 3 and 4 were treated with DMSO only as negative control to assess background and noise signal.
# Four hundred fifty microliter of cultured yeast (in 20mL rich medium) provided by Dr. Shewmaker lab was incubated at 30C at 99% humidity for 3hr. The culture was then spun down at 4000rpm for 5min and the cell pellet was resuspended in 2mL of Sdmin Media + ALU(330) + 2.5% Raffinose. One hundred microliter of the suspension was added to 900uL of water and OD of the solution was obtained. Twenty mL of responding medium (provided by Shewmaker lab) + 2.5% raffinose was added to ensure cell density of 0.1; the solution was incubated overnight. Working cell solution (FUS-yeast in Sdmi + Sdmi + 1X ALU + 2% galactose media) was prepared (final OD at 0.005) and 3uL was dispensed in a 1536-well Aurora high based clear bottom assay plates. Controls and library compounds (at various final concentrations from 40uM to 0.32uM) were added using a 1536-well pin array using the Kalypsys pin-tool. The plates were then incubated for 24hrs in a cell-culture incubator (30C; 99% humidity). Absorbance at 600nm was then read using the PerkinElmer ViewLux plate reader.
# Potency is the fitted concentration of half-maximal effect; tags give direction and shape of the fitted curve.
Compound,growth rescue (activation),Potency
O=C(Nc1nccs1)c1ccc(Br)c(S(=O)(=O)N2CCCC2)c1,inactive: 2.75%,–
COc1cc(/C=C(\CC(=O)O)c2nc3ccccc3s2)cc(OC)c1O,inactive: 28.6%,–
CCc1ccc(N2C=C(C(=O)OC)C(c3ccc(OC)cc3)C(C#N)=C2N)cc1 (stereo unspecified),–,"inconclusive: 31.6 µM [activator, single point]"
CCN(CC)S(=O)(=O)c1ccc2c(c1)N(CC(=O)Nc1ccc(Cl)cc1)C(=O)C1CCCN21 (stereo unspecified),–,"inconclusive: 39.8 µM [activator, single point]"
COc1ccc(-c2sc3ccc(OC)cc3c2C#CCCO)cc1,–,"inconclusive: 50.1 µM [activator, single point]"
COc1ccc(-c2csc(NC(=S)NC(=O)c3ccc(S(=O)(=O)N(C)C)cc3)n2)cc1OC,–,"inconclusive: 8.91 µM [activator, partial curve, poor fit]"
COc1cccc(N2CCN(C(=O)c3cnc4c(-c5ccc(F)cc5)c(C)nn4c3C)CC2)c1,–,"inconclusive: 35.5 µM [activator, single point]"
COc1cc(OC)cc(C(=O)NCCNc2nc3cc(C)cc(C)c3cc2C#N)c1,inactive: -19.6%,–
O=C(c1ccccc1)N1CCN(CC(O)COc2cccc3ccccc23)CC1 (stereo unspecified),inactive: -1.8%,–
O=C(O)c1ccccc1C(=O)N1N=C2/C(=C/c3cccc([N+](=O)[O-])c3)CCCC2C1c1cccc([N+](=O)[O-])c1 (stereo unspecified),–,active: 25.1 µM
COc1cccc(CNC(=O)c2sc3nc[nH]c(=O)c3c2C)c1,inactive: -3.62%,–
COc1cccc(C2=NO[C@@H]3C(=O)N(c4ccc5c(c4)OCCO5)C(=O)[C@H]23)c1OC,inactive: 32.6%,–
Cc1cccc(NC(=O)c2cc3ccccc3nc2C)c1,–,"inconclusive: 31.6 µM [activator, partial curve, poor fit]"
O=C(Oc1ccc2c(c1)OCO2)c1ccc(Br)c(S(=O)(=O)N2CCOCC2)c1,–,"inconclusive: 44.7 µM [activator, single point]"
C[C@H]1COC(=O)[C@H](NC(=O)OCC2c3ccccc3-c3ccccc32)C/C=C\C[C@H](CC(=O)N(CCO)Cc2ccccc2)C(=O)N1,–,"inconclusive: 17.8 µM [activator, partial curve, poor fit]"
Cc1cc(S(=O)(=O)Nc2ccc3ccccc3c2)c(C)s1,inactive: 17.3%,–

Compound,growth rescue (activation),Potency
O=C(Cc1nc(-c2ccc(Br)s2)cs1)NCCN1CCOCC1,–,"inconclusive: 28.2 µM [activator, single point]"
CC(N=Cc1cccc(O)c1O)c1ccccc1 (stereo unspecified),–,"inconclusive: 39.8 µM [activator, partial curve, poor fit]"
CCCCCCCCC(c1nc2ccccc2[nH]1)N1CCN=C1c1cc2ccccc2[nH]1 (stereo unspecified),–,"inconclusive: 31.6 µM [activator, single point]"
Cc1ccccc1C(=O)Nc1nnc(CC(=O)N/N=C/c2cn(Cc3ccccc3)c3ccccc23)s1,inactive: 36.7%,–
CCOc1cc(/C=N/NC(=O)C(=O)NCc2ccc3c(c2)OCO3)ccc1OCC(=O)N1CCOCC1,–,"inconclusive: 50.1 µM [activator, single point]"
Cc1ccc(NC(=O)CCc2nc3cccnc3n2-c2ccccc2)cc1,–,"inconclusive: 31.6 µM [activator, partial curve, poor fit]"
CCCCn1c(N)c(N(CCOC)C(=O)c2ccc(S(=O)(=O)N3CCCCC3)cc2)c(=O)[nH]c1=O,inactive: 11%,–
OC[C@H]1CC[C@@H]2O[C@H](CCc3ccc(-c4ccc(F)cc4)cc3)[C@H](n3cc(C4CC4)nn3)C[C@@H]2O1,–,"inconclusive: 31.6 µM [activator, single point]"
O=C(CN1C(=O)c2cccc3cccc(c23)C1=O)N1CCN(Cc2ccc3c(c2)OCO3)CC1,inactive: 18.5%,–
COc1ccc(-c2c(-c3cc(OC)cc(OC)c3)n(C)c3ccc(-c4ccn[nH]4)cc23)cc1,–,"inconclusive: 31.6 µM [activator, single point]"
COc1ccc(OCC(=O)N2CCN(c3cccc(C(F)(F)F)c3)CC2)cc1,–,"inconclusive: 50.1 µM [activator, single point]"
O=C(CN1CCOCC1)N1N=C(c2cccs2)CC1c1cccs1 (stereo unspecified),inactive: 7.92%,–
CCCCCCSc1cc(-c2nc3ccc(C)cn3c2NCc2ccccc2)ccc1OC,–,"inconclusive: 25.1 µM [activator, single point] and inconclusive: 50.1 µM [activator, single point]"
COc1cccc2cc(C(=O)C3=C(O)C(=O)N(CCN4CCOCC4)C3c3ccc(C(C)(C)C)cc3)oc12 (stereo unspecified),–,"inconclusive: 35.5 µM [activator, single point]"
Cc1ccc(C)c(NS(=O)(=O)c2ccc(-c3cnc(C4CC4)o3)cc2)c1,–,"inconclusive: 25.1 µM [activator, partial curve]"
